Experimental data: the antibiotic and cytotoxicity screens of Wong et al. (2023)
This is one part of the list.

Tested on: HSkMC (human skeletal muscle cells)
Test: cytotoxicity call (relative viability < 0.9)
Details: 10 µM

Compound | cytotoxicity call
C[C@H]1CCCCO[C@H](CN(C)C(=O)CCC(F)(F)F)[C@@H](C)CN([C@@H](C)CO)C(=O)c2cc(NS(=O)(=O)c3ccc(F)cc3)ccc2O1 | inactive
C[C@@H]1CN([C@@H](C)CO)C(=O)c2ccccc2-c2ccccc2CO[C@@H]1CN(C)Cc1cccc(C(F)(F)F)c1 | active
O=C(Nc1ccc(C(F)(F)F)cc1)Nc1ccc2c(c1)[C@@H]1C[C@H](CC(=O)N3CCc4ccccc4C3)O[C@@H](CO)[C@@H]1O2 | inactive
C[C@H](O)C#Cc1ccc2c(c1)O[C@H](CN(C)C)[C@@H](C)CN([C@@H](C)CO)S2(=O)=O | inactive
C[C@@H]1CN([C@@H](C)CO)C(=O)c2cccc(NS(=O)(=O)c3ccccc3)c2O[C@H]1CN(C)Cc1ccncc1 | inactive
CC(C)=CCC[C@](C)(O[C@@H]1O[C@H](CO[C@@H]2OC[C@@H](O)[C@H](O)[C@H]2O)[C@@H](O)[C@H](O)[C@H]1O)[C@H]1CC[C@]2(C)[C@@H]1[C@H](O)C[C@@H]1[C@@]3(C)CC[C@H](O[C@@H]4O[C@H](CO)[C@@H](O)[C@H](O)[C@H]4O)C(C)(C)[C@@H]3CC[C@]12C | inactive
C[C@H]1CCCCO[C@H](CN(C)C(=O)Nc2cccc3ccccc23)[C@@H](C)CN([C@@H](C)CO)C(=O)c2cc(NC(=O)NC3CCCCC3)ccc2O1 | inactive
C[C@H]1CN([C@@H](C)CO)C(=O)Cc2cc(NC(=O)Cc3ccccc3)ccc2O[C@@H]1CN(C)Cc1ccc(Cl)c(Cl)c1 | inactive
Cc1ccc(S(=O)(=O)N(C)C[C@H]2Oc3ccc(NC(=O)c4ccncc4)cc3C(=O)N([C@H](C)CO)C[C@@H]2C)cc1 | inactive

Tested on: S. aureus RN4220
Test: growth inhibition call (relative growth <= 0.2)
Details: 50 µM

Compound | growth inhibition call
CCCn1c(=O)[nH]c2nc(-c3ccc(S(=O)(=O)N4CCN(c5ccc(Cl)cc5)CC4)cc3)[nH]c2c1=O | inactive
Cc1ccc(S(=O)(=O)Nc2cccc3c2O[C@@H](CN(C)Cc2ccc(-c4ccccc4)cc2)[C@H](C)CN([C@H](C)CO)C3=O)cc1 | inactive
Cc1noc(C)c1NC(=O)N[C@H]1C=C[C@@H](CC(=O)NCCCN(C)C)O[C@H]1CO | inactive
CC(=O)c1cc2c(cc1O)OC(C)(C)C=C2 | inactive
C[C@H]1CN([C@@H](C)CO)C(=O)c2cc(C#Cc3ccc(F)cc3)cnc2O[C@H]1CN(C)Cc1ccccn1 | inactive
CN(C)CCCNC(=O)C[C@@H]1CC[C@@H]2[C@H](COc3ccc(NC(=O)c4ccccc4F)cc3C(=O)N2C)O1 | inactive
CS(=O)(=O)N1CCCn2c(nnc2Cn2cccn2)C1 | inactive
C[C@@H]1CN([C@H](C)CO)C(=O)c2cc(-c3cccnc3)cnc2O[C@@H]1CN(C)Cc1ccc(-c2ccccc2)cc1 | inactive
COc1ccc(-c2oc3cc(O[C@@H]4O[C@@H](C)[C@H](O)[C@@H](O)[C@H]4O)cc(O)c3c(=O)c2O[C@@H]2O[C@H](CO)[C@@H](O)[C@H](O)[C@H]2O)cc1 | inactive
COc1ccccc1C#Cc1ccc2c(c1)O[C@@H](CN(C)Cc1ccncc1)[C@@H](C)CN([C@@H](C)CO)S2(=O)=O | inactive
Cl.OC(CCN1CCCCC1)(c1ccccc1)C1CCCCC1 (stereo not drawn) | inactive
O=C(C[C@@H]1CC[C@H]2[C@@H](COC[C@@H](O)CN2S(=O)(=O)c2ccccc2)O1)N1CCc2ccccc2C1 | inactive
O=C1N[C@H](Cc2c[nH]c3ccccc23)COC(=O)[C@@H](Cc2ccc(F)cc2)CCC=CC[C@@H]1CC(=O)N(CCO)Cc1ccccc1 | inactive
Cc1noc(C)c1NC(=O)Nc1ccc2c(c1)C(=O)N([C@H](C)CO)C[C@@H](C)[C@H](CN(C)S(=O)(=O)c1ccc(F)cc1)OCCCC[C@@H](C)O2 | inactive
COc1ccc(S(=O)(=O)N(C)C[C@H]2Oc3ccc(NC(=O)c4ccncc4)cc3C(=O)N([C@@H](C)CO)C[C@@H]2C)cc1 | inactive
C[C@@H]1CN([C@H](C)CO)C(=O)c2cc(NC(=O)Nc3cccc4ccccc34)ccc2O[C@@H]1CN(C)S(=O)(=O)c1ccc(F)cc1 | inactive
COc1ccccc1C(=O)Nc1ccc2c(c1)C(=O)N(C)[C@@H]1CC[C@H](CC(=O)NCCc3ccncc3)O[C@@H]1CO2 | inactive
COC(=O)[C@H](Cc1ccccc1)N1CC2=CC(=O)[C@H](C3CC3)[C@H]2[C@@H]1[C@@H](O)CCn1cc(-c2cccc(/C=C/C(=O)NO)c2)nn1 | inactive
O=C(O)Cn1cccn1 | inactive
